# Laboratory results as given in the supplement of paper PMC3334620.
# Over roughly 33,000 sequences, “E-score (-0.5 to 0.5)” has its median near -0.016; the highest 2% begin near 0.32. The list shows a part of the results.
# Molecular target: T1, Stp1 (UniProt B3LFK1)
# T1 sequence: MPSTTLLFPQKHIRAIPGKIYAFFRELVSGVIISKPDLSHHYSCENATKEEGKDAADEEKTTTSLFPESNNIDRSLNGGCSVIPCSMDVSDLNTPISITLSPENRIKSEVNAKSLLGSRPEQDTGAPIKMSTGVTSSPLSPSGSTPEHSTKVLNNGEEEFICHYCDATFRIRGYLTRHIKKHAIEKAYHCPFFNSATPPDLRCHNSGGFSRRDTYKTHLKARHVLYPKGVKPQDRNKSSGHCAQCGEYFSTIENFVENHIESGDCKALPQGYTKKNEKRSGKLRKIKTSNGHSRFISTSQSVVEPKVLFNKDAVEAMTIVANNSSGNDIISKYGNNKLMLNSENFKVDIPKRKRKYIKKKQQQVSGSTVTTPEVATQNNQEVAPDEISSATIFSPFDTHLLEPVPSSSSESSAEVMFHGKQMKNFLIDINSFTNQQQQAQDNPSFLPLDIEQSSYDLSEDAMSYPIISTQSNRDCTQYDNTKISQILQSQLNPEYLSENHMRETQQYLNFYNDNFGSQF
# Assay: PBM E-score (8-mer binding enrichment) (E-score (-0.5 to 0.5)); higher = stronger / more preferred TF binding; most listed sequences are background and not binding sites
# Conditions: protein concentration: 200 nM; construct: GST-full length
# Method in brief: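 E-scores (a modified Wilcoxon-Mann-Whitney statistic) were assigned by the Universal PBM Analysis Suite to every ungapped eight-base word pooled with its reverse complement. The input came from universal all-10-mer Agilent arrays made double-stranded by primer extension and probed with GST-tagged yeast transcription factors at about 100-200 nM. Fluorescent anti-GST detected bound protein, and masliner normalised the scans.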
row,Sequence,PBM E-score
1,CCCCGTGA,-0.14
2,CGCAGGTC,-0.0638
3,AAGAAATC,0.133
4,AAAGCACA,-0.0775
5,AACCTGCA,-0.126
6,GGTTACAA,0.154
7,AATACATA,0.131
8,AACGGGCG,0.154
9,GGATAAAC,0.144
10,AAACTAGC,-0.104
11,GATCTCAA,0.0503
12,ACTGGCAC,0.0514
13,CTGAGACC,-0.128
14,GGATGGCC,-0.237
15,AGTGCCAA,-0.0972
16,AGCGAGTA,0.0239
17,ATACCTAA,0.0611
18,ATACGCCG,0.381
19,GGGTTTAC,-0.0641
20,TATAAATA,0.198
21,CATTAGAC,-0.0775
22,GAGGGGTA,-0.311
23,GCTCATGA,-0.126
24,AGAGCGAA,0.0162
25,ACAACGCA,0.0219

row,Sequence,PBM E-score
1,CCACTAAA,-0.0975
2,AGTTGGAG,-0.105
3,GCAACCAC,-0.14
4,ACGTTGCC,0.1
5,ACCCATTG,-0.281
6,CTGGTCTC,-0.282
7,GAACTGAC,0.0623
8,GATTGGAC,-0.104
9,TAATCCCA,-0.219
10,ATCCGTCG,0.0183
11,CCTATCTA,-0.0488
12,ATGGAATA,0.209
13,AAAACCAG,0.18
14,CCTAGAAC,0.0102
15,CGCCTCAG,0.289
16,ATTTGATC,0.0111
17,AATACCCC,-0.24
18,CAACGCGC,0.272
19,AGCAACAA,0.173
20,ACGGTGAT,-0.0253
21,ATATTGCG,0.0775
22,GTCCTCGA,-0.0817
23,ACTCATTA,0.165
24,ACAGAGCA,0.0782
25,AATATCTC,0.0625

row,Sequence,PBM E-score
1,GTCCGGAA,0.0408
2,ACTAGGCA,-0.0294
3,CATCGTGG,-0.11
4,ACCGTGGG,-0.27
5,TGCAGTAA,-0.092
6,ATTGGGTG,-0.114
7,ATTTTGCC,0.218
8,CACGCACG,0.203
9,ACAGAGAT,0.0572
10,CGTAGTGA,-0.00456
11,ACGGCAGC,0.406
12,ACATACTC,-0.19
13,AATGTAGC,-0.0806
14,GACACCAC,-0.11
15,AGATAAAT,0.0658
16,AGGAGGGA,-0.203
17,GTTTCAAA,0.0493
18,AGGTCGCA,-0.172
19,GCAGCTCA,-0.188
20,TGATAACA,0.103
21,CAGCGATC,-0.127
22,ACTGCGTG,-0.14
23,GCAATCTA,-0.0152
24,TAAAGAGA,0.0051
25,GTCACTCA,0.02

row,Sequence,PBM E-score
1,CAGGCGGA,0.0994
2,ATTTGCAA,0.176
3,ATCACTAC,-0.158
4,TGTCTTAA,0.0569
5,AGTTCGGA,0.055
6,AAAATCAA,0.149
7,AACACCGC,-0.0137
8,GGAACGCC,-0.0222
9,ACGGCCTG,0.0977
10,CCACCTGA,-0.00421
11,AAAACCTA,0.0597
12,CCGTACCC,0.245
13,CGCCGCCA,0.154
14,ACCTCTAT,-0.00323
15,GTTTAATA,0.173
16,AAGCCGAA,0.116
17,ACTGACTA,-0.176
18,TACCTATA,-0.166
19,TCCGGACA,-0.0452
20,AATCCAAG,0.038
21,AAGTAAAA,0.12
22,AAGTGTCA,-0.295
23,GCACACAA,0.122
24,ACTCGGCA,0.324
25,GCCACTAA,-0.0784

row,Sequence,PBM E-score
1,GCTCGTAA,-0.0259
2,AACGCTGC,-0.0387
3,ATGATACC,0.146
4,GTGCTCCA,-0.122
5,ACAAAAGC,0.158
6,AGGGAGAT,-0.266
7,AAGTGAAC,-0.117
8,CAAATGTG,0.186
9,CGGAGACC,-0.203
10,CTGACAGA,0.0374
11,GCCTAACA,0.0897
12,GTACCTTA,0.0424
13,CAATGCAA,0.0668
14,AACCACAC,0.0193
15,TATCAATA,0.0831
16,AGTAAAAT,0.156
17,ATTGGAAA,0.204
18,AAGCATCC,-0.166
19,CGGGCTCA,-0.0951
20,AGCCGCCA,-0.122
21,TCACGGAA,0.173
22,CTATTAAG,-0.0256
23,CGTCAGAG,-0.0954
24,GCCGTAGC,0.444
25,AGGCGATA,0.0637

row,Sequence,PBM E-score
1,GTGTTACA,-0.129
2,GACGACAA,0.128
3,AAACGCTA,-0.129
4,CAATACAC,0.0863
5,ACTGTGCT,-0.123
6,AGACCCGG,-0.0534
7,CGGTGAGA,0.0251
8,ACCCGAGA,-0.282
9,GCACCACC,0.027
10,CCTACAAA,0.146
11,GGGCCTAC,-0.318
12,CACTGGCG,0.0303
13,ATGTCCCG,-0.254
14,AACCATTC,0.046
15,ACATCGCC,0.0811
16,CAATGCCA,0.0614
17,CGTTCTTA,0.0247
18,AATCAACT,0.224
19,CAAATAAC,0.258
20,CGCCATAC,0.194
21,AGTTTTAT,0.231
22,CCGAAGTA,-0.0196
23,TAGAAGAA,-0.0793
24,AAAGGACG,-0.0453
25,AAAAATTG,0.096

row,Sequence,PBM E-score
1,TGACTGCA,-0.283
2,CTGGAGAC,0.0452
3,CGTACGCA,0.192
4,TCCTGCAA,-0.229
5,GGGGCGAC,-0.0956
6,CGACATAG,-0.148
7,TGGCATAA,0.274
8,ATCATCCA,-0.0547
9,AACCGTCT,-0.0654
10,TGGCCTAA,-0.0945
11,ACTGCCTC,0.0766
12,CAAGACCG,-0.132
13,CTCTGAAG,-0.123
14,CATGAGAC,-0.0712
15,ATATAAAG,0.117
16,GGCGCATA,0.244
17,TGCATCAA,0.141
18,GTGAGCTA,-0.0636
19,CCCACTAG,-0.383
20,AAAGCCAC,0.123
21,AGGCCCGC,-0.0273
22,GTCAAAAC,0.134
